Hit rate of the full screen: of about 50,000 compounds, about 800 (1.6%) showed an effect of 50% or more. Some of the results follow.
These compounds were tested against Bcl-2-like protein 10 (Homo sapiens) (UniProt Q9HD36) (assay: Phenotype converters, Bcl-B/TR3 peptide binding displacement, primary biochemical FP (AID 1240;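 further: 0% = Bcl-B with tracer peptide and DMSO and 100% = tracer peptide lacking Bcl-B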)). Settings: GST-Bcl-B / FITC-TR3 peptide fluorescence polarization; stronger effect = higher value; compound at 3.75 mg/L.
Sequence of UniProt Q9HD36 (Q9HD36 whole entry, looked up): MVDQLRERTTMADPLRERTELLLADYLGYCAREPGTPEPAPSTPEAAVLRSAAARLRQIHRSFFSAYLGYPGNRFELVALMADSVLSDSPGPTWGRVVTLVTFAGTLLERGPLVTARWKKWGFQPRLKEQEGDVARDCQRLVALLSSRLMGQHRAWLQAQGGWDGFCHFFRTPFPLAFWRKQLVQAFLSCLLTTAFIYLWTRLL

Point of comparison: `COc1ccc(OC)c(NC(=O)COc2ccc3ccccc3c2)c1`, displacement -13.3%. Against it:
- CCOC(=O)/C(=C\c1ccc(-c2ccc(S(N)(=O)=O)cc2)o1)C(C)=O — higher, 9.6%
- O=C1CC(c2ccc(Cl)cc2)CC2=C1C(c1ccccc1F)Nc1ccccc1N2 (centres undefined) — higher, -8.9%
- CC(=O)Nc1ccc(-c2ccc(NC(C)=O)c(Cl)c2)cc1Cl — higher, 3.3%
- COc1ccc([N+](=O)[O-])cc1NC1CCCC(C)C1 (centres undefined) — higher, 8.3%
- CCOc1ccc(/C=C2/SC(=S)NC2=O)c(OCC)c1 — higher, 114%
- Cc1ccc2ncnc(N(CC(C)C)CC(C)C)c2c1 — higher, 6.5%
- COc1ccc(C(=O)N2CCN(C3CCCC(C)C3)CC2)cc1 (centres undefined) — lower, -19.4%
- C/C(CC(=O)NCCc1ccccc1)=N\NC(=O)C12CC3CC(CC(C3)C1)C2 — lower, -36.9%
- CCOc1ccc2oc(-c3ccccc3)c(C(=O)N3CCN(C)CC3)c2c1 — higher, 12.2%
- CCCCCC/C(=N\NC(=O)c1ccncc1)c1ccccc1 — higher, -0.9%
- CC(C)c1ccc(N2C(=O)NC(=O)/C(=C/c3ccccc3O)C2=O)cc1 — higher, 0.6%
- Cc1ccnc(SCC(=O)Nc2ccccc2)n1 — higher, 1.9%
- COC(=O)Nc1ccc(S(=O)(=O)N2C(C)CCCC2C)cc1 (centres undefined) — higher, -7.3%
- O=C(N/N=C/c1c[nH]c2ccccc12)c1cc(C23CC4CC(CC(C4)C2)C3)[nH]n1 — higher, -11.9%
- CCOc1ccc(N=C2c3ccc([N+](=O)[O-])cc3C(=O)C2C(C)=O)cc1 (centres undefined) — higher, 0.7%
- CC(C)C(=O)N1N=C(c2ccc(Br)cc2)CC1(O)C(F)(F)F (centres undefined) — higher, -4.5%
- COc1cc(CN2CCN(C3CCCCC3)CC2)cc(OC)c1OC — higher, 5.9%
- COC(=O)c1cc(NC(=O)c2cc(Cl)ccc2[N+](=O)[O-])cc(C(=O)OC)c1 — higher, 4%
- O=C(NC(=S)Nc1cc([N+](=O)[O-])cc(Cl)c1O)c1ccc(F)cc1 — higher, 15.4%
- N#C/C(=C/c1c(F)cccc1Cl)C(=O)Nc1ccc(Cl)cc1 — higher, 2.1%
- CC(C)=C(NC(=O)c1ccccc1)C(=O)Nc1cccc(C)c1 — higher, -11.8%
- COc1ccc(-c2cc(=O)n3[nH]c(-c4ccccc4)cc3n2)cc1 — higher, -0.9%
- O=C(COC(=O)c1ccc(N2C(=O)c3ccccc3C2=O)cc1)COC(=O)c1ccc(N2C(=O)c3ccccc3C2=O)cc1 — higher, 8.3%
- Cc1ccc(NC(=O)c2ccc([N+](=O)[O-])cc2NC(=O)c2ccccc2)c(C)c1 — higher, -3%
- COc1ccc(Br)cc1C(=O)Nc1cccc(-c2nc3ccccc3[nH]2)c1 — higher, 6.7%
- O=C1C(Cl)=C(Nc2ccccc2)C(=O)N1c1cccc(Cl)c1Cl — higher, 11.4%
- COc1cccc(CN2CCN(S(=O)(=O)c3ccc(Cl)cc3)CC2)c1 — higher, -1.6%
- O=C1OC(c2ccc(Br)cc2)=N/C1=C\c1ccc(OC(=O)c2ccccc2F)cc1 — higher, -12.9%

Reference: PubChem BioAssay AID1240 (Sanford-Burnham Center for Chemical Genomics, 2008)
